From paper PMC12040169 (PLOS Biology, 2025) come the findings set out here.

This is one part of the list.

The test deals with T1, C. trachomatis L2/434/Bu expressing GFP (CTL2-GFP).
T1 construct: L2/434/Bu GFP intracellular growth in HeLa cells
More on the design: species or system HeLa; C. trachomatis total inclusion area by high-content imaging, normalised to DMSO. Particulars: total inclusion area; 28.5 h, 10 µM; inhibitor. Summed up: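 Imaging read-out: GFP inclusions and Hoechst nuclei captured by high-content imaging after fixation. Inclusion area/number = chlamydial growth; nuclei count = host cell viability. MIC calculated per earlier method.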
Regarding `NNC(=O)CCc1ccccc1O` [CBK261214], the “% of control remaining” value worked out at 109.081.
Take `O=C(O)CN(c1ccc2c(c1)OCCO2)S(=O)(=O)c1ccccc1` [CBK268017]: the “% of control remaining” value was 103.313.
For `CN1CCC2(CC1)CC(NC(=O)C1CCCCC1)c1ccccc1O2` (stereo not shown) [CBK282635], the “% of control remaining” value is recorded as 98.2606.
Regarding `Cc1nn(CC(=O)N2CCCC2)c(=O)c2cc3sccc3n12` [CBK284024], the “% of control remaining” value came to 93.8519.
The value for `Cc1nn(-c2ccccn2)c(N)c1C1CC(=O)N(c2ccc(C(=O)O)cc2)C1=O` (stereo not shown) [CBK291180] was 119.852; that for `CN(C)/C=N/c1ncc2ncn(C3CC(O)C(CO)O3)c2n1` (stereo not shown) [CBK201175] was 96.0736; that for `CCCN(C(=O)c1coc(COc2ccc3sc(C)nc3c2)n1)C1CC1` [CBK306878] was 80.8882.
As to `Cc1cc(OCC(=O)O/N=C(\N)Cc2ccc([N+](=O)[O-])cc2)ccc1Cl` [CBK264322], the “% of control remaining” value worked out at 82.6756.
Consider `O=C(N/N=C\c1cccc(O)c1)C(=O)N/N=C/c1cccc(O)c1` [CBK261962], for which the “% of control remaining” value came to 119.024.
As for `CC(C)N1CCN(c2nccnc2Cl)CC1` [CBK028901], the “% of control remaining” value worked out at 127.614.
On to `CC(=O)c1ccc(-c2ccc(C(=O)NCC3COc4ccccc4O3)c(N(C)C(C)=O)n2)s1` (stereo not shown) [CBK076637], for which the “% of control remaining” value is given as 104.676.
With `Nc1ccn([C@@H]2O[C@H](CO)[C@H](O)C2O)c(=S)n1` (stereo partly shown) [CBK201293], the “% of control remaining” value is recorded as 88.6685.
On to `COc1cccc(NC(=O)CCS(=O)(=O)c2cccs2)c1` [CBK071069], for which the “% of control remaining” value came to 86.9881.
Take `CCC(=O)Nc1sc2c(c1-c1nc3ccccc3s1)CCCC2` [CBK287324]: the “% of control remaining” value turned out to be 99.1348.
The value for `COc1cc(C(c2c[nH]c3ccccc23)c2c[nH]c3ccccc23)c(Br)cc1OC(C)=O` [CBK266051] was 58.383; that for `Nc1ccc(S(=O)(=O)NC2(C(F)(F)F)NC(=O)N(c3ccccc3Cl)C2=O)cc1` (stereo not shown) [CBK268003] was 92.4933; that for `Cc1c(Br)c(C(F)(F)F)nn1CC(=O)NCCN1CCOCC1` [CBK018700] was 59.6135.
The value for `CCCOc1ccc(OC(=O)COc2ccccc2)cc1` [CBK160853] was 82.379; that for `Cc1[nH]c(=O)[nH]c(=O)c1Cc1cccc2ccccc12` [CBK111494] was 84.5087.
As for `Cn1cc(C2CCCCCN2C(=O)c2cc(C3CC3)on2)cn1` (stereo not shown) [CBK285301], the “% of control remaining” value worked out at 90.6259.
On to `O=C1C2C3C=CC(C2C(=O)N1CCO)C1C2C(=O)N(CCO)C(=O)C2C31` (stereo not shown) [CBK263016], for which the “% of control remaining” value is reported as 87.176.
As for `O=C(Nc1cccnc1)N1CCN(c2ccccc2)CC1` [CBK145043], the “% of control remaining” value came out at 110.125.
Turning to `O=C(Cc1ccccc1)Nc1nnc(C2=COCCO2)o1` [CBK287416], the “% of control remaining” value is given as 92.2471.
The value for `CCc1cc(Br)ccc1S(=O)(=O)Nc1ccccc1O` [CBK043877] was 57.1404.
`Cc1c(Cl)cccc1S(=O)(=O)Nc1nccnc1C(=O)O` [CBK024795]: the “% of control remaining” value is 110.282.
Regarding `CCCC/C=C/c1cccc(Nc2cccnc2)n1` [CBK037645], the “% of control remaining” value turned out to be 136.816.
Take `O=C(NCc1cccs1)C1(Cc2ccc(-c3ccc(F)c(F)c3)cc2)CCOCC1` [CBK285533]: the “% of control remaining” value is recorded as 74.6908.
Regarding `COc1ccccc1C(=O)Nc1sc2c(c1C#N)CC(C)(C)NC2(C)C` [CBK307233], the “% of control remaining” value amounted to 62.3087.
In the case of `COc1cccc(Cc2cccc(C3CCN(C(=O)Cc4c[nH]c5ccccc45)CC3)n2)c1` [CBK286145], the “% of control remaining” value is 61.6963.
As for `COc1ccc(S(=O)(=O)n2ccn(-c3ccc(Oc4ccccc4)cc3)c2=O)cc1OC` [CBK106649], the “% of control remaining” value worked out at 105.475.
As for `CS(=O)(=O)N1CCN(c2ccc(NC(=O)c3ccc(-c4cccc([N+](=O)[O-])c4)o3)cc2)CC1` [CBK268602], the “% of control remaining” value came out at 108.831.
For `CCSc1nnc2c3c(sc2c1N)CC(C)(C)OC3` [CBK020374], the “% of control remaining” value was 56.3405.
Regarding `Cc1cc(C)n(-c2ccc(CN3C(=O)NC4(CCCC4)C3=O)cc2)n1` [CBK305796], the “% of control remaining” value was found to be 39.4813.
The value for `COc1ccc2[nH]c3c(c2c1)CCN(C=O)C31CCN(Cc2cccc(Cl)c2)C1` (stereo not shown) [CBK040376] was 66.4229; that for `COc1cccc(CC2(C#N)CC2)c1` [CBK003907] was 100.65; that for `CCc1nc(CC(=O)N2CCOC(c3ccc(F)cc3)C2)cs1` (stereo not shown) [CBK304083] was 69.6936.
The value for `Cc1nn(CCC#N)c(C)c1[C@@H]1C=C[C@@H](NC(=O)Nc2ccc(Cl)cc2)C1` [CBK288803] was 67.2798; that for `O=C(Nc1sc2c(c1CN1CCCCCC1)CCCC2)c1ccccc1` [CBK261811] was 93.0387.
As for `O=c1cc(N2CCN(c3ccccc3)CC2)[nH]c(=O)n1-c1ccccc1Cl` [CBK287506], the “% of control remaining” value is 126.243.
Consider `Cc1cc(C)c2c(c1)COC1(CCN(Cc3ccccc3)CC1)O2` [CBK061572], for which the “% of control remaining” value is reported as 93.3733.
Regarding `CCOc1cc(-c2cc(C(=O)O)c3ccccc3n2)ccc1O` [CBK266848], the “% of control remaining” value is on record as 79.1141.
With `CCC1(CCc2ccccc2)CC(O)=CC(=O)O1` (stereo not shown) [CBK012790], the “% of control remaining” value is 99.4746.
The result for `O=C1NC2(CCN(C(=O)c3ccc(C(F)(F)F)c(F)c3)CC2)Oc2ccc(-c3ccccc3)cc21` [CBK115841] reads 104.009; that for `Cc1cccc(C)c1NC(=O)Nc1ccc(F)cc1F` [CBK300526], 68.4019; that for `CCc1cccc(C)c1NC(=O)CSc1nnc(-c2cccnc2)n1C` [CBK267582], 92.7411.
Consider `Cc1cc(NC(=O)CN(C)Cc2ccc(Br)cc2)on1` [CBK305599], for which the “% of control remaining” value amounted to 57.7662.
`COc1ccccc1N1CCN(C(=O)NCCc2c[nH]cn2)CC1` [CBK155369]: the “% of control remaining” value stood at 119.034.
`CCc1c(C)nc2ccccc2c1S(=O)(=O)CCC(=O)OC` [CBK155468T]: the “% of control remaining” value turned out to be 100.088.
Consider `O=C(N[C@H]1C[C@H]2C(=O)NC[C@@H](CCC(=O)N3CCOCC3)N2C1)c1cccs1` [CBK289009], for which the “% of control remaining” value is given as 81.8961.
With `CNCCc1nc(-c2cccs2)c2ccccn12` [CBK035905], the “% of control remaining” value was determined as 93.5863.
Regarding `OC1(c2ccc(F)cc2)CCCC2CN(Cc3cccnc3)CC21` (stereo not shown) [CBK284377], the “% of control remaining” value is 75.6123.
Take `O=C(C1CC1)N1C2CCC1CC(O)(Cn1ccc3ccncc31)C2` (stereo not shown) [CBK284652]: the “% of control remaining” value stood at 106.673.
